Measurements as given in patent EP4685153A1 (priority 2023, dated 2024).
Where two headings read alike, the source gives them in different places. Residues, ends and D or L forms follow the SMILES beside them. *: point of attachment. Succinyl(4-O-cholesteryl) = CC(C)CCC[C@@H](C)[C@H]1CC[C@H]2[C@@H]3CC=C4C[C@@H](OC(=O)CCC(=O)*)CC[C@]4(C)[C@H]3CC[C@]12C

How the values were obtained:
[1] = tested on: replicative HIV-1 strain SG3.1; details: for inhibitory activity higher than that of the T20, SG3.1: MT-4 cells, versus T20
Description: (§1) The cells were further washed once with RPMI-1640 culture medium at 200 µl/well, and then RPMI-1640 complete culture medium at 200 µl/well was add to culture the cells. • (3) On the fourth day, the 96-well plate was centrifuged at room temperature at 200 g for 5 min, and the supernatant was taken at 30 µl/well and transferred into a new 96-well plate, to which 1% Triton-X100 solution was added at 120 µl/well for inactivating the viruses. Positive control wells and the initial concentration were used for P24 antigen quantification to determine the dilution factor.. The P24 antigen quantification was performed according to the operating method as described in the specification of the kit, using a 96-well microplate reader for measurement. Then, each culture supernatant was diluted to an appropriate concentration to conduct the P24 antigen quantitative assay. The inhibition curve for each drug was fitted by using the four-parameter logistic equation in non-linear regression analysis and the IC50 values were calculated.

[2] = tested on: replicative HIV-1 strain 89.6; details: for inhibitory activity higher than that of the T20, 89.6: MT-4 cells, versus T20; for IC50: replicative strain 89.6
Description: as §1

[3] = tested on: replicative HIV-1 strain LAI.2; details: for inhibitory activity higher than that of the T20, LAI.2: MT-4 cells, versus T20
Description: as §1

[4] = tested on: replicative HIV-1 strain 89.6; details: for inhibitory activity higher than that of the T20, 89.6: TZM-bl cells, versus T20; for IC50: replicative strain 89.6, 48 h

Row | Compound | inhibitory activity higher than that of the T20, SG3.1 [1] [folds] | inhibitory activity higher than that of the T20, 89.6 [2] [folds] | IC50 [2] [nM] | inhibitory activity higher than that of the T20, LAI.2 [3] [folds] | inhibitory activity higher than that of the T20, 89.6 [4] [folds] | IC50 [4] [nM] | IC50 ([1]; replicative strain SG3.1) [nM] | IC50 ([3]; replicative strain LAI.2) [nM]
1 | CC[C@H](C)[C@H](NC(=O)[C@H](CCCCN)NC(=O)[C@H](CCCCN)NC(=O)[C@H](CCC(=O)O)NC(=O)[C@H](CC(C)C)NC(=O)[C@H](CCC(=O)O)NC(=O)[C@H](CCC(=O)O)NC(=O)[C@H](CC(C)C)NC(=O)[C@H](CCC(=O)O)NC(=O)[C@H](CCCCN)NC(=O)[C@H](CCC(=O)O)NC(=O)[C@H](Cc1ccc(O)cc1)NC(=O)[C@H](CCC(=O)O)NC(=O)[C@H](CCC(=O)O)NC(=O)[C@H](Cc1ccc(O)cc1)NC(=O)[C@H](CCC(=O)O)NC(C)=O)C(=O)N[C@@H](CCC(=O)O)C(=O)N[C@@H](CCC(=O)O)C(=O)N[C@@H](CC(C)C)C(=O)N[C@@H](CC(C)C)C(=O)N[C@@H](CCCCN)C(=O)N[C@@H](CCCCN)C(=O)N[C@@H](C)C(=O)N[C@@H](CCC(=O)O)C(=O)N[C@@H](CCC(=O)O)C(=O)N[C@@H](CCC(N)=O)C(=O)N[C@@H](CCC(N)=O)C(=O)N[C@@H](CCCCN)C(=O)N[C@@H](CCCCN)C(=O)N[C@@H](CC(N)=O)C(=O)N[C@@H](CCC(=O)O)C(=O)N[C@@H](C)C(=O)N[C@@H](C)C(=O)N[C@@H](C)C(=O)N[C@@H](CCCCN)C(=O)N[C@@H](CCCCNC(=O)CCC(=O)O[C@H]1CC[C@@]2(C)C(=CC[C@H]3[C@@H]4CC[C@H]([C@H](C)CCCC(C)C)[C@@]4(C)CC[C@@H]32)C1)C(N)=O [LP-127] (Ac-EYEEYEKELEELEKKIEELLKKAEEQQKKNEAAAKK(Succinyl(4-O-cholesteryl))-NH2) | 1643 | 3311 | 0.00145 | 2762 | 1743 | 0.00909 |  | 
2 | CC[C@H](C)[C@H](NC(=O)[C@H](CCCCN)NC(=O)[C@H](CCCCN)NC(=O)[C@H](CCC(=O)O)NC(=O)[C@H](CC(C)C)NC(=O)[C@H](CCC(=O)O)NC(=O)[C@H](CCC(=O)O)NC(=O)[C@H](CC(C)C)NC(=O)[C@H](CCC(=O)O)NC(=O)[C@H](CCCCN)NC(=O)[C@H](CCC(=O)O)NC(=O)[C@H](Cc1ccc(O)cc1)NC(=O)[C@H](CCC(=O)O)NC(C)=O)C(=O)N[C@@H](CCC(=O)O)C(=O)N[C@@H](CCC(=O)O)C(=O)N[C@@H](CC(C)C)C(=O)N[C@@H](CC(C)C)C(=O)N[C@@H](CCCCN)C(=O)N[C@@H](CCCCN)C(=O)N[C@@H](C)C(=O)N[C@@H](CCC(=O)O)C(=O)N[C@@H](CCC(=O)O)C(=O)N[C@@H](CCC(N)=O)C(=O)N[C@@H](CCC(N)=O)C(=O)N[C@@H](CCCCN)C(=O)N[C@@H](CCCCN)C(=O)N[C@@H](CC(N)=O)C(=O)N[C@@H](CCC(=O)O)C(=O)N[C@@H](C)C(=O)N[C@@H](C)C(=O)N[C@@H](C)C(=O)N[C@@H](CCCCN)C(=O)N[C@@H](CCCCNC(=O)CCC(=O)O[C@H]1CC[C@@]2(C)C(=CC[C@H]3[C@@H]4CC[C@H]([C@H](C)CCCC(C)C)[C@@]4(C)CC[C@@H]32)C1)C(N)=O [LP-128] (Ac-EYEKELEELEKKIEELLKKAEEQQKKNEAAAKK(Succinyl(4-O-cholesteryl))-NH2) | 2834 | 5785 |  | 9322 | 1851 | 0.00856 |  | 
3 | Enfuvirtide |  |  | 4.8 |  |  | 15.8 | 1.13 | 0.746
